± gives the standard deviation of the averaged measurements. The full ranking holds about 33,000 sequences; the median of “E-score (dimensionless, -0.5 to 0.5)” is about -0.049, and the highest 2% start at about 0.37. The list shows a part of the results.
Tested on: T1, PmTbr T-box DNA-binding domain (GST fusion)
T1 sequence: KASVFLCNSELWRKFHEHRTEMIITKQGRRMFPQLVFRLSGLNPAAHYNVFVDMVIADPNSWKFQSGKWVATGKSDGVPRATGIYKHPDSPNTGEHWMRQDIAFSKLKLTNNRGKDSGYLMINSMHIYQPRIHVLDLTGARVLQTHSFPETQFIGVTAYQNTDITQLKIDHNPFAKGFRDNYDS
Experiment: PBM E-score of 8-mer (E-score (dimensionless, -0.5 to 0.5)); Tbr is Tbrain of the sea star Patiria miniata (Pm) or the sea urchin Strongylocentrotus purpuratus (Sp); higher = stronger binding preference; most listed sequences are background and not binding sites
Conditions: the construct has about 5 more residues each side
Procedure, shortened: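 Each ungapped 8-mer received an enrichment E-score from the Universal PBM Analysis Suite, averaged over duplicate arrays. The proteins were Tbr T-box DNA-binding domains, covering the whole T-box plus about five flanking residues, fused to GST and expressed in BL21 E. coli at 20 °C before glutathione affinity purification. Universal Agilent oligonucleotide arrays were made double-stranded by primer extension and incubated with 200 nM protein in PBS (pH 7.5). The arrays were then scanned and quantified, and every 8-mer was scored from probe intensities.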

Row | Sequence | PBM E-score of 8-mer
1 | ACATATAC | -0.0692 ± 0.026
2 | ATGGACGG | -0.248 ± 0.014
3 | CAGTCCGC | 0.028 ± 0.053
4 | CACCGTGG | 0.209 ± 0.0039
5 | GGCTGCGA | 0.167 ± 0.044
6 | AGCTAAAG | -0.205 ± 0.036
7 | CATCAAAG | -0.0524 ± 0.035
8 | ACTACGTG | 0.115 ± 0.04
9 | AAACCTTA | -0.0234 ± 0.053
10 | AAACTATA | -0.022 ± 0.096
11 | ACGACGCC | 0.13 ± 0.0084
12 | ATGCGAGA | 0.144 ± 0.02
13 | CCGCTGCC | -0.0631 ± 0.0041
14 | CAAATACC | -0.0183 ± 0.11
15 | ATCGTGAG | 0.166 ± 0.0089
16 | CGCGTCAA | 0.308 ± 0.0074
17 | AGCCAAAC | 0.0279 ± 0.0027
18 | CGAATCTC | 0.0196 ± 0.022
19 | ATACTAAA | -0.0773 ± 0.064
20 | CAATCGGG | -0.195 ± 0.031
21 | CTGCGTCC | -0.282 ± 0.0038
22 | GGCTTTAA | -0.168 ± 0.055
23 | GAGATCTC | 0.213 ± 0.061
24 | ATCCTGTA | -0.0772 ± 0.04
25 | AGCAAATG | -0.154 ± 0.061

Row | Sequence | PBM E-score of 8-mer
26 | TAGAGACA | -0.0816 ± 0.018
27 | GGCATTAC | -0.165 ± 0.0079
28 | AGATGAGC | -0.328 ± 0.058
29 | TATGTAGA | -0.0657 ± 0.046
30 | CCGAGCTA | -0.0153 ± 0.082
31 | CACGAGGA | -0.138 ± 0.032
32 | CATGCAAG | 0.0255 ± 0.013
33 | ATGGTGGC | 0.271 ± 0.056
34 | GAGTCATA | -0.223 ± 0.038
35 | ATATTTAC | -0.0829 ± 0.0039
36 | GGAACGGA | 0.133 ± 0.013
37 | AAAAGTGA | 0.197 ± 0.059
38 | CGCCTACA | 0.14 ± 0.016
39 | AGTAACAA | 0.167 ± 0.0063
40 | GCACGCAA | -0.0192 ± 0.0044
41 | CGCCTAGC | 0.216 ± 0.011
42 | GGAATATA | -0.235 ± 0.045
43 | CTACAGAG | -0.187 ± 0.022
44 | AGTCTTGA | -0.0572 ± 0.011
45 | AACTGGAC | 0.0168 ± 0.033
46 | ATACGCAA | 0.00573 ± 0.041
47 | ACTGGGGA | -0.0346 ± 0.062
48 | CGATTCAC | 0.143 ± 0.0046
49 | AAGAAGCG | 0.121 ± 0.037
50 | AGGACACG | -0.0089 ± 0.017

Row | Sequence | PBM E-score of 8-mer
51 | AATTATCA | 0.102 ± 0.075
52 | AATAAGCA | -0.084 ± 0.011
53 | GAACGAGC | -0.256 ± 0.017
54 | AGGGTCGC | 0.166 ± 0.034
55 | CCGGGCTC | -0.282 ± 0.041
56 | ACGCCAAG | 0.0568 ± 0.02
57 | GCGGGAAC | 0.159 ± 0.063
58 | GATGGTGA | 0.199 ± 0.0021
59 | CCCACCAC | -0.0276 ± 0.048
60 | GACTGCGA | 0.191 ± 0.012
61 | AACCTCCA | -0.158 ± 0.028
62 | CGCTGGAG | -0.141 ± 0.049
63 | CACGAACG | 0.178 ± 0.029
64 | CTAACGTC | -0.175 ± 0.038
65 | GAGTGACA | 0.373 ± 0.017
66 | GAGGACTA | -0.333 ± 0.0069
67 | ACCGCCTG | 0.077 ± 0.11
68 | ATCTACCA | -0.0473 ± 0.051
69 | ATGCCTAA | 0.0145 ± 0.021
70 | GCTGCTGA | -0.119 ± 0.044
71 | AGAAAGAA | -0.238 ± 0.064
72 | ATTTTTCC | 0.00112 ± 0.058
73 | CTGGAAGA | -0.211 ± 0.047
74 | AACCCCAG | -0.401 ± 0.0055
75 | AACTGCGA | 0.312 ± 0.018

Row | Sequence | PBM E-score of 8-mer
76 | AACCCCCG | 0.0146 ± 0.0046
77 | TCATTCGA | -0.143 ± 0.026
78 | TAGATAGA | -0.177 ± 0.0018
79 | AAACCGGG | -0.1665 ± 0.00043
80 | CCAACGCC | 0.225 ± 0.04
81 | ATTGCAAC | -0.043 ± 0.047
82 | CAAGCTGG | 0.215 ± 0.0055
83 | CTAGTTCA | 0.0311 ± 0.029
84 | AGGGATAG | -0.192 ± 0.068
85 | AGATCGGC | -0.244 ± 0.013
86 | CTTTTTGC | 0.00834 ± 0.022
87 | AGATGTAG | -0.1996 ± 0.00023
88 | TACTGATA | -0.123 ± 0.0055
89 | AGTCACAC | 0.462 ± 0.0029
90 | GCGCGTAA | 0.176 ± 0.0068
91 | ATTTAGAC | -0.155 ± 0.022
92 | AAAGAACC | -0.217 ± 0.067
93 | AAAGGCCT | -0.237 ± 0.025
94 | GCAGCGTA | -0.0821 ± 0.013
95 | AACTTTCA | -0.00477 ± 0.064
96 | GCTCTCCA | -0.163 ± 0.016
97 | CTGACCGA | -0.0732 ± 0.0037
98 | ACGGAGAC | -0.194 ± 0.015
99 | GCTAGCGA | 0.21 ± 0.021
100 | ACAAAGCG | 0.0603 ± 0.0036

Row | Sequence | PBM E-score of 8-mer
101 | GATTAACA | 0.306 ± 0.03
102 | ACCGAACC | -0.043 ± 0.11
103 | ATGCTAGA | -0.158 ± 0.055
104 | GGCGTATA | -0.00473 ± 0.058
105 | AAGTTATA | 0.0895 ± 0.029
106 | ACAGCCGT | 0.0773 ± 0.041
107 | CGTAGGAA | -0.0196 ± 0.14
108 | AGTTTCGA | -0.2209 ± 0.0018
109 | CCATTGGC | -0.153 ± 0.012
110 | ATTAGCAG | 0.129 ± 0.045
111 | TCGCGCCA | 0.366 ± 0.018
112 | ATTACTAC | -0.0718 ± 0.035
113 | TCATTAGA | -0.129 ± 0.032
114 | AGACCTGG | -0.3082 ± 0.0015
115 | ATGGATGG | -0.25357 ± 0.00023
116 | CGGCTCGA | 0.0408 ± 0.024
117 | ATTACCGG | -0.178 ± 0.031
118 | CATCCTGG | -0.0719 ± 0.003
119 | TCTAGTAA | -0.223 ± 0.027
120 | ACTCGGGC | -0.0948 ± 0.016
121 | GATGCACA | -0.0216 ± 0.037
122 | GTTGTCGA | 0.241 ± 0.021
123 | ATTTCCCC | -0.183 ± 0.023
124 | AGCACATA | 0.222 ± 0.014
125 | ATGATGTA | -0.137 ± 0.0031

Row | Sequence | PBM E-score of 8-mer
126 | ATGCTTTC | 0.0507 ± 0.0053
127 | ACGGACCG | -0.0149 ± 0.045
128 | GAACTTGA | -0.136 ± 0.051
129 | GGTATTTA | -0.211 ± 0.061
130 | AAAAGAAG | -0.193 ± 0.03
131 | CTATAGAA | -0.129 ± 0.058
132 | GATGATCC | -0.0862 ± 0.048
133 | AGGTGGTG | 0.385 ± 0.042
134 | CTAACCGC | 0.0244 ± 0.035
135 | CCGGAGAG | -0.158 ± 0.048
136 | ATCGTAGA | -0.172 ± 0.016
137 | CTAACTCC | -0.0973 ± 0.039
138 | TTATCGAA | -0.0452 ± 0.0066
139 | CTTACGTA | -0.1098 ± 0.00089
140 | AACGAAAA | -0.172 ± 0.019
141 | AACGAGAA | -0.0662 ± 0.0045
142 | TAGTCGGA | -0.1819 ± 0.00083
143 | ACCCGAGT | -0.0549 ± 0.0084
144 | ATAAGAAA | -0.172 ± 0.1
145 | ACTAACCG | -0.0963 ± 0.013
146 | TACCTACA | -0.2971 ± 0.00036
147 | AACTTTCC | -0.105 ± 0.06
148 | ATATCTCC | -0.1611 ± 0.0007
149 | GTGAAGAA | 0.223 ± 0.021
150 | ATGGACAG | -0.212 ± 0.057

Row | Sequence | PBM E-score of 8-mer
151 | AGGTGCAA | 0.4484 ± 0.0012
152 | GTCGAGAA | 0.0517 ± 0.025
153 | CCCCAAAG | -0.0097 ± 0.076
154 | GGAAATCA | -0.0612 ± 0.068
155 | CAACGAAG | -0.0866 ± 0.054
156 | ATATGTTG | 0.0196 ± 0.038
157 | AAGGCCAG | -0.128 ± 0.024
158 | AGCGTACT | -0.132 ± 0.029
159 | CTACCAAG | -0.0639 ± 0.025
160 | TACTTGAA | -0.262 ± 0.037
161 | GCAGTACA | -0.187 ± 0.06
162 | AGGGCGGG | -0.0505 ± 0.059
163 | AGACCAAT | -0.169 ± 0.044
164 | GGATTACA | -0.0414 ± 0.012
165 | ACACACAC | 0.281 ± 0.029
166 | CGAGAATA | -0.108 ± 0.11
167 | CATCGGCA | -0.0492 ± 0.0013
168 | CATCTTGG | -0.12 ± 0.063
169 | AGTGATAT | 0.22 ± 0.034
170 | CGAAGTAC | -0.215 ± 0.04
171 | GAAGGGGC | -0.0956 ± 0.061
172 | TGAGAACA | 0.302 ± 0.0062
